Laboratory results taken from the RNAGym collection of RNA variant scans (doi:10.1093/nar/gkz1192).
The source gives no read counts; variants with many changes may rest on few reads.

B1: CPEB3 Ribozyme (parent)
chain: UAACAGGGGGCCACAGCAGAAGCGUUCACGUCGCAGCCCCUGUCAGAUUCUGGUGAAUCUGCGAAUUCUGCUGUAUAUCUC

Variants of: B1
Assay: self-cleavage, relative activity (ratio to wild type); higher = more cleavage; in vitro, sequencing
How it was run: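 Libraries of CPEB3 self-cleaving ribozyme mutants came from rounds of error-prone PCR and carried barcodes, which DNA sequencing matched to variants. In vitro transcription used T7 RNA polymerase at 37°C for 5 hours, with a further 15 min in DNase I before EDTA stopped the reaction; the ribozymes cleaved during both steps. The RNA was reverse transcribed with template switching and sequenced on Illumina. Relative activity is the cleaved/total read fraction of a variant divided by that of the unmutated ribozyme, averaged over three batches with at least 5 reads.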

Row | Variant | self-cleavage
1 | UAACAGGGGGCCACAGCAGAAGCGUUCACGUCGCAGCCCCCGUCUGAUUCUGGUGAAUCUGCGACUUCUGCUGUGUAUCUC | 0.25
2 | UAACAGGGGGCCACAGCAGAAGCGUUCACGUCGCAGCCCCCGUCGGAUCCUGGUGGAUCUGCGAAUUCCGCUGUAUAUCUC | 0.09
3 | UAACAGGGGGCCACAGCAGAAGCGUUCACGUCGCAGCCCCCGUCGGAUUCUGGUGAAUCCGCGAAUUCUGCAGUAUAUCUC | 0.41
4 | UAACAGGGGGCCACAGCAGAAGCGUUCACGUCGCAGCCCCCGUCGGAAUCUGGUGAAUCUGCGAAUUCUGCUGUAUAUCUC | 0.17
5 | UAACAGGGGGCCACAGCAGAAGCGUUCACGUCGCAGCCCCCGUCUGAUCCUGGUGAAUCUGCGAAUUCUGCUGUAUAUCUC | 0.38
6 | UAACAGGGGGCCACAGCAGAAGCGUUCACGUCGCAGCCCCCGUCUGAUUCUGGUGGAUCCGCGAAUUCUGCUGUAUAUCUC | 0.42
7 | UAACAGGGGGCCACAGCAGAAGCGUUCACGUCGCAGCCCCCGUCGGAUUCUGGUGAAUCUGCGAAUUCUGCUGUGCAUCUC | 0.83
8 | UAACAGGGGGCCACAGCAGAAGCGUUCACGUCGCAGCCCCCGUCCGAUUCUGGUGUGUCUGCGAAUUCUGCGGUAUAUCUC | 0.07
9 | UAACAGGGGGCCACAGCAGAAGCGUUCACGUCGCAGCCCCAGUCAGAUUCUGGUGAAUCUGCGAAUUCUGCUGCAUAUCCC | 0.61
10 | UAACAGGGGGCCACAGCAGAAGCGUUCACGUCGCAGCCCCCGUCGGAUUCUGGUGAACCUGCGAAUUCUGCUGUAUACCUC | 0.17
11 | UAACAGGGGGCCACAGCAGAAGCGUUCACGUCGCAGCCCCCGUCGGAUUCUGGUGGAUCUGCGAAUUCUGCUGUAUGUCUC | 0.54
12 | UAACAGGGGGCCACAGCAGAAGCGUUCACGUCGCAGCCCCCGUCUGAUUCUGGUGAGUCUGCGAAUCCUGCUGUAUAUCUC | 0.45
13 | UAACAGGGGGCCACAGCAGAAGCGUUCACGUCGCAGCCCCCGUCGGAUUCUGGUGAAUCUGCGAGUUCUGCUGUAUAUCUC | 0.36
14 | UAACAGGGGGCCACAGCAGAAGCGUUCACGUCGCAGCCCCCGUCGGAUUCUAAUGAAUCUGCGAAUUCAGCUGUAUAUCUC | 0.74
15 | UAACAGGGGGCCACAGCAGAAGCGUUCACGUCGCAGCCCCCGUCUGAUUCUGGUGACUCUGCGAAUUCUGCUGUAUACCUC | 0.05
16 | UAACAGGGGGCCACAGCAGAAGCGUUCACGUCGCAGCCCCCGUCGGAUUCUGGUGAAUAUGCGAAUUCUGCUGUUUAUCUC | 0.28
17 | UAACAGGGGGCCACAGCAGAAGCGUUCACGUCGCAGCCCCCGUCGGAUUCUGGUGAAUCUUCGAAUUCUGCUGUAUGUCUC | 0.59

Row | Variant | self-cleavage
18 | UAACAGGGGGCCACAGCAGAAGCGUUCACGUCGCAGCCCCCGUCGGAUUCUGGGGAAACUGCGAAUUCAGCUGUAAAUCUC | 0.19
19 | UAACAGGGGGCCACAGCAGAAGCGUUCACGUCGCAGCCCCAGUCAGAUUCUGGUGAAUCUGCGAAUUCUGCUGUACACCUC | 0.43
20 | UAACAGGGGGCCACAGCAGAAGCGUUCACGUCGCAGCCCCCGUCUGAUUCUGGUGAAUCUGCAAAUUCAGCUGAAUAUCUC | 0.26
21 | UAACAGGGGGCCACAGCAGAAGCGUUCACGUCGCAGCCCCAGUCAGAUUCUGGUGAAUCUGCGAAUUCUGCCGUAUACCUC | 0.24
22 | UAACAGGGGGCCACAGCAGAAGCGUUCACGUCGCAGCCCCCGUCGGAUUCUGGUGAGUCUGCGAAUUCUGCUGUAUAUCUC | 0.62
23 | UAACAGGGGGCCACAGCAGAAGCGUUCACGUCGCAGCCCCCGUCGGAUUCUGGUGAAUCUGCGUAUUCUGCUGUAUAACUC | 0.3
24 | UAACAGGGGGCCACAGCAGAAGCGUUCACGUCGCAGCCCCCGUCGGAUUCUGGUGAAUCUGCGAAUUCUGCAGUAUAUCUC | 0.55
25 | UAACAGGGGGCCACAGCAGAAGCGUUCACGUCGCAGCCCCCGUCGGAUUCUGGUGAAUCUGCGAAUUCUGCGGUAUAUCUC | 1.13
26 | UAACAGGGGGCCACAGCAGAAGCGUUCACGUCGCAGCCCCCGUCCGAUACUGGUGAAUCUGCGAAUUCUGCUGUAUAUCCC | 0.51
27 | UAACAGGGGGCCACAGCAGAAGCGUUCACGUCGCAGCCCCCGUCGGAUUCUGGUGAAUCCGCGAAUUCUGCUGUAUAUCUC | 1.07
28 | UAACAGGGGGCCACAGCAGAAGCGUUCACGUCGCAGCCCCCGUCUGGUUCUGGUGAAUCUGUGAAUUCUGCUGUAUAUCUC | 0.15
29 | UAACAGGGGGCCACAGCAGAAGCGUUCACGUCGCAGCCCCCGUCGGAUUCUGGUGCAUCUGCGAAUUCUACUGUGUAUCUC | 0.24
30 | UAACAGGGGGCCACAGCAGAAGCGUUCACGUCGCAGCCCCAGUCAGAUUCUGGUGAAUCUGCGAAUUCUGCCGUAUAUCAC | 0.12
31 | UAACAGGGGGCCACAGCAGAAGCGUUCACGUCGCAGCCCCAGUCAGAUUCUGGUGAAUCUGCGAAUUCUGCCGUAUAUCCC | 0.39
32 | UAACAGGGGGCCACAGCAGAAGCGUUCACGUCGCAGCCCCCGUCGGAUUCUGGUGAAUCUGCGAAUUCUGCCGUAUAUCCC | 1
33 | UAACAGGGGGCCACAGCAGAAGCGUUCACGUCGCAGCCCCAGUCAGAUUCUGGUGAAUCUGCGAAUUCUGCUGCAAAUCUC | 0.13
34 | UAACAGGGGGCCACAGCAGAAGCGUUCACGUCGCAGCCCCCGUCGGAUUCUGGUGAAACUGCGAGUUCUGCCGUAUAUAUC | 0.35
